Assay results as given in PubChem BioAssay AID588342 (National Center for Advancing Translational Sciences (NCATS), 2011).
In all, about 360,000 compounds went through this assay and about 25,000 (6.9%) were called active. The shares of active, inactive and inconclusive entries below differ from those in the screen. Calls follow the shape of the dose curve; as a rule, active = well fitted inhibition curve with a large enough effect; inconclusive = small, poorly fitted or top-dose-only effect; inactive = flat fitted curve, though single readings scatter. Where the call is inconclusive, the potency comes from a doubtful curve fit.

target: Luciferin 4-monooxygenase (Photinus pyralis) (UniProt P08659); experiment: qHTS profiling assay for firefly luciferase inhibitor/activator using purifed enzyme and Km concentrations of substrates (counterscreen for miR-21 project); details: purified FLuc, luminescence inhibition; series mostly up to 57.5 µM; also: nearly all actives have a fitted effect of over 55% in size
UniProt P08659, sequence (P08659 whole entry, looked up): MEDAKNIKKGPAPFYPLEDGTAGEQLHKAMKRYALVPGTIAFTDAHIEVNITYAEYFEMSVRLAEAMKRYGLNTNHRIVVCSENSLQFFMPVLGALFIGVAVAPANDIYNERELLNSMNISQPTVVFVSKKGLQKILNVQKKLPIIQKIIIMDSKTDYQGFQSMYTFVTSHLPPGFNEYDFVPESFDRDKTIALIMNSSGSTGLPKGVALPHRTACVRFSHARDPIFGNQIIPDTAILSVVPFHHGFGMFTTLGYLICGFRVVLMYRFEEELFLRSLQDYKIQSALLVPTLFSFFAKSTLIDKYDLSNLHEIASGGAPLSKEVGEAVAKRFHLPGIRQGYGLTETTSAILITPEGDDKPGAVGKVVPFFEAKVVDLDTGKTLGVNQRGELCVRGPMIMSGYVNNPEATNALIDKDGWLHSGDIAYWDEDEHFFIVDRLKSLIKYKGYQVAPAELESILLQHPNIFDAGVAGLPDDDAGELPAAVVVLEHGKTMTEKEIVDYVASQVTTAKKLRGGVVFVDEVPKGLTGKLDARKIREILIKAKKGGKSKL
How it was run: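 Purified P. pyralis luciferase (10nM final) with 10uM D-luciferin and 10uM ATP (Km levels) in 50mM Tris acetate pH 7.5, 10mM Mg acetate, 0.01% Tween-20, 0.05% BSA; qHTS 6-point titration, ~60 µM downward; luminescence read.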
Potency is read from the fitted curve at half-maximal effect; tags tell the direction and shape of the fitted curve.

SMILES | Potency
CC(=O)c1cnc2nc(SCc3ccccc3C)nn2c1C | inconclusive: 23.9 µM [inhibitor, partial curve, poor fit]
C/C(=C\c1ccccc1)C(=O)n1nnc2ccccc21 | active: 19 µM
CCC(=O)Nc1cc(C(=O)OCC(=O)c2ccccc2Cl)ccc1C | active: 8.49 µM
COc1cc(OC)cc(C(=O)/C=C2\Sc3ccccc3N2C)c1 | active: 7.57 µM
CC1(C)Cc2c(sc(NC(=O)/C=C/C(=O)O)c2C#N)CO1 | inconclusive: 26.9 µM [inhibitor, single point]
CC(C)C[C@H](NC(=O)N1CCCCCC1)C(=O)O | inactive
S=C(Nc1ccc2c(c1)OCO2)N1CCCC1 | inactive
CCC(=O)N(C)CCc1cc2c(c(OC)c1/C=N/NC(=O)c1ccc(Br)cc1)OCO2 | inconclusive: 26.9 µM [inhibitor, single point]
O=c1ccc2[n+]([O-])c3ccc(O)cc3oc-2c1 | active: 15.1 µM
O=C(Nc1ccccc1F)c1ccc(OCc2ccccc2)cc1 | inconclusive: 2.69 µM [inhibitor, full curve]
COc1cccc(OCC(=O)Nc2ccccc2C(N)=O)c1 | active: 4.78 µM
Cn1ccc2cc(-c3ccc4ncnc(NCc5cccs5)c4c3)ccc21 | inconclusive: 30.1 µM [inhibitor, single point]
C/C(=N\NC(=S)Nc1cccc(C)c1)c1ccccc1 | inconclusive: 21.3 µM [inhibitor, partial curve]
Cc1c(NS(=O)(=O)c2ccc(NC(=O)CCC(=O)O)cc2)c(=O)n(-c2ccccc2)n1C | inactive
O=C(O)C1C2C=CC3(CN(Cc4ccncc4)C(=O)C13)O2 (configuration not stated) | inconclusive: 8.49 µM [inhibitor, single point]
CSc1cccc(Nc2nc3c(S(=O)(=O)c4ccccc4)nnn3c3ccc(Cl)cc23)c1 | inactive
COc1ccc(OC)c(NC(=O)/C=C/c2ccccc2[N+](=O)[O-])c1 | inconclusive: 26.9 µM [inhibitor, single point]
CC(C)c1ncc(S(=O)(=O)c2ccc(C(F)(F)F)cn2)c(N)n1 | inactive
CCOc1ccc(NC(=S)c2ccc3ccccc3n2)cc1 | inconclusive: 21.3 µM [inhibitor, partial curve]
O=C(CCCc1ccccc1)Nc1cccnc1 | inconclusive: 37.9 µM [inhibitor, single point]
O=[N+]([O-])c1ccc(N/N=C\c2cccn2-c2ccccc2)nc1 | inactive
COc1cccc(C2C(=O)c3ccccc3C2=O)c1 | active: 26.9 µM
COc1ccc(-c2[nH]ncc2C(=O)NCc2ccccc2C)cc1 | inactive
Cc1cc(NS(=O)(=O)c2ccc(NC(=O)c3cc4c(=O)n5ccccc5nc4s3)cc2)nc(C)n1 | inconclusive: 26.9 µM [inhibitor, partial curve, poor fit]

SMILES | Potency
COc1ccc(NC(=O)C2C3CC/C=C\CCC32)cc1 (configuration not stated) | inconclusive: 7.57 µM [inhibitor, full curve]
CCC(C(=O)NCCc1ccc(SC)cc1)n1nc(C)c2sc3ccccc3c2c1=O (configuration not stated) | inconclusive: 8.49 µM [inhibitor, partial curve, poor fit]
O=C(C1COc2ccccc2O1)N1CCN(c2nc3ccccc3s2)CC1 (configuration not stated) | inconclusive: 37.9 µM [inhibitor, partial curve, poor fit]
Cn1c(C(=O)NCc2cccnc2)cc2sc(Cl)cc21 | inconclusive: 37.9 µM [inhibitor, partial curve, poor fit]
O=C(Nc1ccc(O)cc1C(=O)O)c1ccc(NC(=O)c2ccco2)cc1 | inconclusive: 33.8 µM [inhibitor, single point]
CC(/C=N/NC(=O)CCn1nnc2ccccc21)=C\c1ccccc1 | inconclusive: 23.9 µM [inhibitor, single point]
COc1ccc(OCC(=O)OCc2cc(=O)n3nc(C4CCCCC4)sc3n2)cc1 | inactive
COc1ccccc1NC=C1C(=O)OC2(CCCCC2)OC1=O | inconclusive: 16.9 µM [inhibitor, partial curve]
COc1cc(Cl)cc(/C=C/c2ccc3ccccc3n2)c1OC(C)=O | active: 6.75 µM
CC(C)(C)n1ncc2c(=O)n(Cc3ccc(Cl)cc3)cnc21 | inconclusive: 37.9 µM [inhibitor, single point]
CC(C)Oc1ccc(Oc2ccc(C(F)(F)F)cn2)cc1 | inconclusive: 23.9 µM [inhibitor, single point]
CC(C)(C)C1CCc2c(sc(NC(=O)Cn3nnc(-c4ccccc4F)n3)c2C#N)C1 (configuration not stated) | inconclusive: 10.7 µM [inhibitor, partial curve, poor fit]
COC(=O)C1=C(C)NC(=S)NC1c1ccc(-c2cccc(Cl)c2)o1 (configuration not stated) | inconclusive: 12 µM [inhibitor, partial curve, poor fit]
COc1ccc2oc(C(=O)OCC(=O)NC3CCCCC3)c(C)c2c1 | inconclusive: 26.9 µM [inhibitor, partial curve, poor fit]
O=Cc1cn(CC(=O)Nc2ccc(F)cc2)c2ccccc12 | inactive
O=C(CCCSc1ccccc1)Nc1nc(-c2ccco2)c(-c2ccco2)s1 | inconclusive: 19 µM [inhibitor, single point]
CCC(C)NC(=O)Cn1c(=O)n(-c2ccc(C)c(C)c2)c(=O)c2c3c(sc21)CCCCC3 (configuration not stated) | inactive
CC(=O)C(Sc1nn(C)c(=S)s1)C(=O)Nc1ccccc1 (configuration not stated) | inconclusive: 23.9 µM [inhibitor, single point]
O=c1oc(CCO)cc2ccc(C#Cc3ccsc3)cc12 | inconclusive: 8.91 µM [inhibitor, partial curve, poor fit]
COc1cc(SC)ccc1C(=O)Nc1ccccc1C#N | inconclusive: 2.39 µM [inhibitor, full curve]
CCOC(=O)c1scc(-c2ccc(C)cc2)c1S(=O)(=O)N1CCN(c2ccccc2F)CC1 | inactive
Cc1ccc(Cl)cc1N1CCN(C(=O)CCNS(=O)(=O)c2ccc3c(c2)CCN3C(=O)C2CC2)CC1 | inactive
CCN(c1ccc(OC)cc1)S(=O)(=O)N1CCCC(C(=O)NCc2cccc(C)c2)C1 (configuration not stated) | inactive
COc1ccc(-c2nnc(SCC(=O)NC3CCCC3)nc2-c2ccc(OC)c(OC)c2)cc1OC | inactive

SMILES | Potency
Cc1ccc(/C=N/N=C2\SCC(=O)N2CC2CC2)cc1 | inconclusive: 26.9 µM [inhibitor, single point]
Cc1ccc2oc(=O)c(/C=C(\O)c3ccccc3)nc2c1 | inconclusive: 19 µM [inhibitor, partial curve]
Cn1nc(C(=O)NCc2cccc(F)c2)cc1C(=O)NCc1cccc(F)c1 | inactive
O=C(Nc1ccncc1)C1CCN(S(=O)(=O)c2cccs2)CC1 | inactive
O=C(Nc1cccc(C(F)(F)F)c1)c1cc(-c2ccc(F)cc2)on1 | inconclusive: 12 µM [inhibitor, partial curve]
O=C(NCc1ccccc1)C1CCN(S(=O)(=O)c2ccc3c(c2)CCCN3C(=O)C2CCC2)CC1 | inactive
COc1ccc2occ(C(=O)c3ccc(N=C(C)N(C)C)cc3)c2c1 | inconclusive: 19 µM [inhibitor, partial curve]
COc1ccc(-c2nnc(-c3ccc(OCC(C)C)cc3)o2)cc1 | inconclusive: 7.57 µM [inhibitor, partial curve]
COc1ccc(OC)c(/C=C2/Sc3ccccc3C2=O)c1 | active: 9.53 µM
COC(=O)Nc1cccn(Cc2c(Cl)cccc2Cl)c1=O | inconclusive: 21.3 µM [inhibitor, partial curve, poor fit]
O=C(O)c1cccc(NC(=O)c2ccc3c(c2)C(=O)N(c2ccccc2)C3=O)c1 | active: 0.269 µM
Fc1ccc(N2CCN(C3=Nc4cccc5cccc3c45)CC2)cc1 | active: 15.1 µM
Cc1cc(C)cc(-n2ccn(CC(=O)Nc3cc(C)ccc3C)c(=O)c2=O)c1 | inconclusive: 37.9 µM [inhibitor, partial curve, poor fit]
Cc1cc(C)c2oc(C(=O)N3CCN(C)CC3)cc(=O)c2c1 | inactive
CCCc1cc(=O)[nH]c(SCC(=O)c2cc(C)n(-c3c(C)n(C)n(-c4ccccc4)c3=O)c2C)n1 | inconclusive: 12 µM [inhibitor, partial curve, poor fit]
C/C(=N/NC(=O)c1sc(NS(=O)(=O)c2ccccc2)nc1C)c1sc(N)nc1C | inconclusive: 30.1 µM [inhibitor, single point]
Cc1ccc(C)c(N2CCN(C(=O)C3CCCN(Cc4nc(-c5cccc(Cl)c5)oc4C)C3)CC2)c1 (configuration not stated) | inconclusive: 37.9 µM [inhibitor, partial curve, poor fit]
CC1CCn2c(nc3cc(C(=O)NCc4ccccc4)ccc32)C1 (configuration not stated) | inconclusive: 37.9 µM [inhibitor, partial curve, poor fit]
CC(C)=CCc1c(O)ccc2c1OC(c1ccc(O)c(O)c1)CC2=O (configuration not stated) | inconclusive: 37.9 µM [inhibitor, single point]
O=C(COc1ccc(Cl)cc1)NNC(=O)c1cccnc1 | inactive
CCSc1nnc(-c2ccccc2N)c(=O)[nH]1 | inconclusive: 37.9 µM [inhibitor, partial curve, poor fit]
O=C(Nc1ccc2c(c1)C(=O)NC2=O)c1ccccc1 | inactive
COCC(=O)Nc1sc2c(c1C(=O)OC)CCC(C)C2 (configuration not stated) | inconclusive: 19 µM [inhibitor, partial curve]
Cc1[nH]c2ccccc2c1SCC(=O)N1CCC(C)CC1 | inconclusive: 37.9 µM [inhibitor, partial curve, poor fit]
